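Test compounds were applied to cells in 96-well plates for 48 hours at 5 doses. GI50 is the concentration that inhibits growth by half.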 Calls of active or inactive are those of the source. No stated cut-off is given here; in the data, active = GI50 up to about 1.1 µM and inactive = higher. Bounds are passed on as bounds.

59 molecules from ChEMBL document CHEMBL1201862, “PubChem BioAssay data set” (2004) can be followed below.

This assay deals with NCI-H322M. Put plainly: DTP human tumour cell line panel, 48 h.
Take `CC(=O)ON(C(C)=O)c1ccc(-c2nc3ccccc3s2)cc1`: the GI50 – broadly, the concentration that inhibits growth by half – was inactive: 31.9 µM.

Take `CCN1c2ccccc2-c2c3c1cc(C)cc3c1ccccc1[n+]2CC`: the GI50 is inactive: 2.15 µM.

For the molecule `C1=Cc2ccccc2C1.C=C(C)c1ccccc1.[N-]=[N+]=Nc1ccccc1`, the GI50 was inactive: 84.5 µM.

On to `CC1(C)C(C(=O)OC(C#N)c2cccc(OCC(=O)OCc3ccccc3)c2)C1(C)C` (centres undefined), for which the GI50 was inactive: > 100 µM.

Take `CC1CC(C#N)=C2NCCCCN2C1=O` (centres undefined): the GI50 is inactive: > 100 µM.

On to `CNC(=S)N/N=C(C)\C(=N/NC(=S)NC)c1ccccc1`, for which the GI50 was inactive: 95.9 µM.

With `CN(C)c1nncc2[nH]cnc12`, the GI50 is inactive: > 100 µM.

Take `Nc1ccc(OCCCc2c(-c3ccccc3)[nH]c(N)nc2=O)cc1`: the GI50 is inactive: 60.7 µM.

On to `CSC(SC)=C(C#N)C(=O)Nc1ccc(C)cc1`, for which the GI50 is inactive: > 100 µM.

As for `Nc1nncc2[nH]nnc12`, the GI50 was inactive: > 100 µM.

Regarding `CC1C/C(=C\c2ccc(O)c(O)c2)C(=O)/C(=C/c2ccc(O)c(O)c2)C1` (centres undefined), the GI50 is inactive: 13 µM.

On to `COC(=O)C(=O)C(C#N)c1ccc(Cl)c(Cl)c1` (centres undefined), for which the GI50 is inactive: > 100 µM.

On to `CN(/N=C/c1ccnc2ccccc12)c1c([N+](=O)[O-])cc([N+](=O)[O-])cc1[N+](=O)[O-]`, for which the GI50 is inactive: > 100 µM.

Regarding `CCOC(=O)NC(=O)c1cn(CCN2CCN(C(=O)CCCCCCCCCCNc3ncnc4[nH]cnc34)CC2)c(=O)[nH]c1=O`, the GI50 was inactive: > 100 µM.

In the case of `O=C1CCSCCC(=O)Nc2ccccc2N1`, the GI50 is inactive: > 100 µM.

In the case of `CN1C(NCCO)=NS(=O)(=O)c2ccccc21`, the GI50 was inactive: > 100 µM.

On to `N#CC(C#N)=Cc1ccc(Oc2ccccc2)cc1`, for which the GI50 is inactive: > 91.4 µM.

For `CCC1CN2CCc3cc(OC)c(OC)cc3C2CC1CC1c2cc(OC)c(OC)cc2CCN1C(=O)C1CCCN1` (centres undefined), the GI50 is inactive: 32.1 µM.

In the case of `COC1=C2C[C@](OC)(C#CC=CC#CC2O)CC1(C)C` (some centres undefined), the GI50 is inactive: > 100 µM.

Regarding `O=C(Nc1c(O)[nH]c(=S)[nH]c1=O)c1ccccc1F`, the GI50 is inactive: > 100 µM.

On to `COc1cc(C2OC(N)=C(C#N)C3=C2C(C)CCC3)cc(OC)c1OC` (centres undefined), for which the GI50 was inactive: > 100 µM.

In the case of `Cn1cnc2c(sc3nc4ccccc4n32)c1=N`, the GI50 is inactive: > 100 µM.

Consider `Sc1nnc(-c2ccccc2Nc2ccccc2-c2nnc(S)n2-c2ccccc2)n1-c1ccccc1`, for which the GI50 is inactive: 38 µM.

In the case of `Cn1c(=O)c2c(nc3n(CC(O)CCl)c(=O)ccn23)n(C)c1=O` (centres undefined), the GI50 is inactive: 57.1 µM.

Take `Cc1ccnc(NS(=O)(=O)c2ccc(NC3=CC(=O)C(=O)c4ccccc43)cc2)n1`: the GI50 is inactive: > 100 µM.

In the case of `CCNC1=C(NC(=O)CC)C(=O)c2ccccc2C1=O`, the GI50 was inactive: > 100 µM.

Regarding `Cc1nc2c(n1CC(C)C)C(=O)c1ccccc1C2=O`, the GI50 is inactive: 37.2 µM.

Take `CC(CO)(CO)/N=C/c1cc(I)cc(I)c1O`: the GI50 was inactive: 19.5 µM.

For the molecule `COc1cc(-c2nnc3n2NC=C(C(=O)O)S3)cc(OC)c1OC`, the GI50 is inactive: > 100 µM.

Regarding `C[As](C)SCC(NC(=O)CCC(N)C(=O)O)C(=O)NCC(=O)O.c1ccncc1` (centres undefined), the GI50 was inactive: 1.31 µM.

Turning to `C[C@@H]1OC(=O)N2CCCC(=C3SCCCS3)C12` (some centres undefined), the GI50 was inactive: 68.2 µM.

In the case of `CCc1c(Cl)nc(Cl)nc1Cl`, the GI50 was active: 1.11 µM.

Consider `CC(=O)O[C@H]1C(=O)[C@@]2(C)[C@H]([C@H](OC(=O)c3ccc(F)cc3)[C@]3(O)C[C@H](OC(=O)[C@H](O)[C@@H](NC(=O)c4ccccc4)c4ccccc4)C(C)=C1C3(C)C)[C@]1(OC(C)=O)CO[C@@H]1C[C@@H]2O`, for which the GI50 was active: 0.0352 µM.

Consider `Cc1nc(-n2[nH]c(C)c(CCO)c2=O)[nH]c(=O)c1CCO`, for which the GI50 was inactive: > 100 µM.

Turning to `CC(=O)[C@H]1CCC2[C@@H]3CC=C4C(O)C(OS(=O)(=O)O)CC[C@]4(C)C3CC[C@@]21C` (some centres undefined), the GI50 is inactive: > 100 µM.

As for `CCOC(=O)/C(C#N)=C(O)/C(=C/c1ccccc1Cl)NC(=O)c1ccccc1`, the GI50 is inactive: > 100 µM.

Take `Clc1nc(-c2ccccc2)nc(Cl)c1Cl`: the GI50 is inactive: 14.1 µM.

`Cc1ccc(S(=O)(=O)Oc2ccc(OS(=O)(=O)c3ccc(C)cc3)c3c2C(=O)c2ccccc2C3=O)cc1`: the GI50 was inactive: > 100 µM.

In the case of `O=c1[nH]nc(Cc2ccccc2)n1-n1cnnc1`, the GI50 is inactive: > 100 µM.

Turning to `COc1ccc(N2C(=O)/C(=C/c3ccc(N(CCC#N)CCC#N)cc3)N=C2c2ccccc2)c(OC)c1`, the GI50 was inactive: > 100 µM.

As to `COc1ccc(/C=C2/NC(=S)N=C2Cl)cc1`, the GI50 is inactive: > 100 µM.

With `CCc1cc2c(O)c(c1)Cc1cc(CC)cc(c1O)Cc1cc(CC)cc(c1O)Cc1cc(CC)cc(c1O)Cc1cc(CC)cc(c1O)Cc1cc(CC)cc(c1O)Cc1cc(CC)cc(c1O)C2`, the GI50 is inactive: > 100 µM.

Take `CC(=O)Nc1ccc2c(c1)C(=O)c1cccc(F)c1-2`: the GI50 was inactive: 42.5 µM.

Regarding `O=C(Nc1ccc(Cl)cc1)[C-](C(=O)c1ccc(Br)cc1)[n+]1cccc(-c2ccc(Cl)cc2)n1`, the GI50 was inactive: 3.28 µM.

Regarding `Cc1nc(C)c(C(=O)Nc2cccc3c2C(=O)NC3=O)cc1C(=O)Nc1cccc2c1C(=O)NC2=O`, the GI50 was inactive: > 100 µM.

In the case of `CCOC(=O)CSc1nnc(CSc2nc(-c3ccccc3)c(-c3ccccc3)[nH]2)n1-c1ccccc1`, the GI50 was inactive: > 88.7 µM.

With `COc1cccc(OC)c1/C=N\N1C(=O)c2ccccc2C1=O`, the GI50 was inactive: > 100 µM.

For the molecule `CCC(C)C(=O)OCC(=O)c1ccc(-c2ccccc2)cc1` (centres undefined), the GI50 was inactive: 48.1 µM.

Regarding `COc1nc(OC)nc(Sc2ccc(Sc3ccc(Sc4nc(OC)nc(OC)n4)cc3)cc2)n1`, the GI50 was inactive: > 100 µM.

On to `CC1(C)C(=O)C(=Cc2ccco2)C1=O`, for which the GI50 is inactive: > 100 µM.

On to `CC(O)CN1c2ccccc2Sc2ccc(Cl)cc21` (centres undefined), for which the GI50 is inactive: > 10 µM.

Take `CC(C)C(=O)N[C@@H](C)C(=O)N(Cc1ccc2ccccc2c1)N=O`: the GI50 is inactive: > 100 µM.

Consider `CN(N=O)C(=O)Nc1ccc(C(=O)O)cc1`, for which the GI50 is inactive: > 100 µM.

`C=CCN1C(=O)CS/C1=N\NC(=O)CSc1nc2ccccc2c(=O)n1CC`: the GI50 is inactive: > 100 µM.

Turning to `C[N+]12c3ccccc3O[B-]1(c1ccccc1)Oc1ccccc12` (centres undefined), the GI50 is inactive: 45.1 µM.

Take `COc1cc(O)c2c(c1)C(=O)C1=C(C2=O)C(O)C[C@@](C)(O)C1` (some centres undefined): the GI50 was inactive: 2.08 µM.

Turning to `COc1cc2cc(C(=O)N3CC(CCl)c4c3cc(N)c3ccccc43)[nH]c2c(OC)c1OC` (centres undefined), the GI50 is active: < 0.01 µM.

Take `COc1cc2c(cc1C[N+](C)(C)CSc1ccccc1)-c1ccccc1CC2`: the GI50 is inactive: 13.1 µM.

For the molecule `COc1cc2c(cc1OC)C(OC)N(C)c1c-2ccc2cc3c(cc12)OCO3` (centres undefined), the GI50 was inactive: 2.69 µM.
